Assay results reported in PubChem BioAssay (NCATS).
“And” between values parts separate entries of the source, which are not always exact repeats. Identical values can stand only once. Inconclusive results, whose numbers are uncertain, are shown with a selection of clear calls. Potencies beside an inconclusive call are fits to weak or partial responses and may not hold up. The source made the active and inactive calls. Calls come from the whole dose curve; as a rule, active = well fitted inhibition curve with a large enough effect; inconclusive = small, poorly fitted or top-dose-only effect; inactive = flat fitted curve, though single readings scatter.

These compounds were tested on MCC-26 (assay: qHTS assay to identify novel small-molecules to repurpose for Merkel cell carcinoma treatment (AID 1296009; note: nearly all actives have a fitted effect of over 60% in size)). Conditions: MCC and control cell lines, CellTiter-Glo viability, 72 h; series mostly up to 46 µM.
How it was run: (§1)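 Viability readout: ATP luminescence (CellTiter-Glo) after 72 hr drug exposure at 37 degree celsius. Dose-response format was 8 points for NPC and 11 points for MIPE; data normalized to in-plate controls.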
Potency is the fitted concentration of half-maximal effect; tags give direction and shape of the fitted curve.

Row | SMILES | Potency
1 | Cc1nc(NC(=O)N2CCC[C@@H]2C(N)=O)sc1-c1csc(C(C)(C)C)n1 | inconclusive: 6.62 µM [inhibitor, partial curve, poor fit]
2 | CCN1CCN(CC(=O)Nc2ccc(-c3cccc4c(=O)cc(N5CCOCC5)oc34)c3sc4ccccc4c23)CC1 | inconclusive: 1.32 µM [inhibitor, full curve]
3 | CN(C)c1ccc(C(=C2C=CC(=[N+](C)C)C=C2)c2ccc(N(C)C)cc2)cc1 | active: 7.5 µM and active: 4.69 µM
4 | O=C(Nc1ccc(Cl)cc1)Nc1ccc(Cl)c(Cl)c1 | inconclusive: 15 µM [inhibitor, partial curve]
5 | CCCCCN=C(N)N/N=C/c1c[nH]c2ccc(OC)cc12 | active: 23.7 µM
6 | O=[N+]([O-])c1ccc(O)c2ncccc12 | active: 13.3 µM
7 | O=c1c(-c2ccccc2)c1-c1ccccc1 | inactive
8 | COc1cc2nc(-c3cc(F)ccc3O)nc(N[C@@H]3CNC[C@@H]3C(C)(C)O)c2cc1OC | inconclusive: 29.6 µM [inhibitor, single point]
9 | CC[C@@H]1C(=O)N(C)c2cnc(Nc3ccc(C(=O)NC4CCN(C)CC4)cc3OC)nc2N1C1CCCC1 | inconclusive: 0.0935 µM [inhibitor, full curve]
10 | CCC(C=C[C@@H]1OC(=O)C=C[C@H]1C)=C[C@H](C)CC=CC(C)=C[C@@H](C)C(=O)[C@@H](C)[C@H](O)[C@@H](C)CC(C)=CC(=O)O | inconclusive: 0.0877 µM [inhibitor, full curve]

These compounds were tested on MKL-1 in the same assay as above. Conditions: MCC and control cell lines, CellTiter-Glo viability, 72 h; series mostly up to 46 µM.
How it was run: as §1

Row | SMILES | Potency
11 | CCN1CCN(CC(=O)Nc2ccc(-c3cccc4c(=O)cc(N5CCOCC5)oc34)c3sc4ccccc4c23)CC1 | inconclusive: 1.66 µM [inhibitor, full curve]
12 | O=[N+]([O-])c1ccc(O)c2ncccc12 | active: 3.76 µM
13 | O=c1c(-c2ccccc2)c1-c1ccccc1 | active: 26.6 µM
14 | CCOC(=O)C1=C(C)NC2=C(C(=O)CC(C)(C)C2)C1c1ccc(-c2ccccc2)cc1 (stereo not given) | inconclusive: 33.2 µM [inhibitor, single point]
15 | CCC(C=C[C@@H]1OC(=O)C=C[C@H]1C)=C[C@H](C)CC=CC(C)=C[C@@H](C)C(=O)[C@@H](C)[C@H](O)[C@@H](C)CC(C)=CC(=O)O | inconclusive: 0.0139 µM [inhibitor, full curve]
